# In patent US20240270806A1 (Chugai, published 2024):
# Where two headings read alike, the source gives them in different places.
# How the values were obtained:
# Assay in all cases: cell-based or functional assay
# [1] = target: T1, Human IL-12 receptor (human IL-12Rb1 and IL-12Rb2) (human, UniProt P42701 24-662; Q99665 24-862)
# [2] = target: T1, Human IL-12 receptor (human IL-12Rb1 …); remark: listed apart in the source
# [3] = target: T1, Human IL-12 receptor (human IL-12Rb1 …); remark: listed apart in the source
# [4] = target: T1, Human IL-12 receptor (human IL-12Rb1 …); remark: listed apart in the source
# [5] = target: T1, Human IL-12 receptor (human IL-12Rb1 …); remark: listed apart in the source
"Fold change (window), IL-12 luciferase assay [1]","Fold change (window), IL-12 luciferase assay [2]","Fold change (window), Donor 1, IFN gamma release by human PBMC [3]","Fold change (window), Donor 2, IFN gamma release by human PBMC [3]","Fold change (window), Donor 3, IFN gamma release by human PBMC [3]","Fold change (window), IL-12 luciferase assay [4]","EC50 (read off the curve), IL-12 luciferase reporter assay (+ MTSP1) [bottom graph] [5]","EC50 (read off the curve), IL-12 luciferase reporter assay (+ MTSP1) [middle graph] [5]","EC50 (read off the curve), IL-12 luciferase reporter assay (without protease) [middle graph] [5]",Binder
,441 fold,282 fold,173 fold,203 fold,,,,,Bivalent IL-12 fusion protein FP27 (other) heavy: QVQLVQSGAEVKKPGSSVKVSCKASGGTFSDYYLHWSRQAPGQGLEWMGWIDPENGDTEYAPKFQGRVTITADESTSTAYMELSSLRSEDTAVYYCARNKELRYIDVWGQGTLVTVSSTSGSGRSATPRGASTKGPSVFPLAPCSKSTSGGTAALGCLVKDYFPEPVTVSWNSGALTSGVHTFPAVLQSSGLYSLSSVVTVPSSSLGTQTYICNVNHKPSNTKVDKRVGGGGSGGGGS[human IgG1 Fc with changes cut from this listing]GSGGSGGSGGSGGSGGSIWELKKDVYVVELDWYPDAPGEMVVLTCDTPEEDGITWTLDQSSEVLGSGKTLTIQVKEAGDAGQYTCHKGGEVLSHSLLLLHKKEDGIWSTDILKDQKEPKNKTFLRCEAKNYSGRFTCWWLTTISTDLTFSVKSSRGSSDPQGVTCGAATLSAERVRGDNKEYEYSVECQEDSACPAAEESLPIEVMVDAVHKLKYENYTSSFFIRDIIKPDPPKNLQLKPLKNSRQVEVSWEYPDTWSTPHSYFSLTFCVQVQGKHKEKKDRVFTDKTSATVICRKNASISVRAQDRYYSSSWSEWASVPCSGGGGSGGGGSGGGGSGGGGSNLPVATPDPGMFPCLHHSQNLLRAVSNMLQKARQTLEFYPCTSEEIDHEDITKDKTSTVEACLPLELTKNESCLNSRETSFITNGSCLASRKTSFMMALCLSSIYEDLKMYQVEFKTMNAKLLMDPKRQIFLDQNMLAVIDELMQALNFNSETVPQKSSLEEPDFYKTKIKLCILLHAFRIRAVTIDRVMSYLNAS light: DIVMTQSPLSLPVTPGEPASISCRASQSISINLHWYQQKPGQAPRQLIAFASQSISGVPSRFSGSGSGTDFTLTISSLQPEDFATYYCQQSNSFPLTFGQGTKVEIKRTVAAPSVFIFPPSDEQLKSGTASVVCLLNNFYPREAKVQWKVDNALQSGNSQESVTEQDSKDSTYSLSSTLTLSKADYEKHKVYACEVTHQGLSSPVTKSFNRGEC
,341 fold,174 fold,123 fold,129 fold,,,,,Bivalent IL-12 fusion protein FP26 (other) heavy: QVQLVQSGAEVKKPGSSVKVSCKASGGTFSDYYLHWSRQAPGQGLEWMGWIDPENGDTEYAPKFQGRVTITADESTSTAYMELSSLRSEDTAVYYCARNKELRYIDVWGQGTLVTVSSTSGSGRSATPRGASTKGPSVFPLAPCSKSTSGGTAALGCLVKDYFPEPVTVSWNSGALTSGVHTFPAVLQSSGLYSLSSVVTVPSSSLGTQTYICNVNHKPSNTKVDKRVGGGGSGGGGS[human IgG1 Fc with changes cut from this listing]GSGGSGGSGGSGGSGGSIWELKKDVYVVELDWYPDAPGEMVVLTCDTPEEDGITWTLDQSSEVLGSGKTLTIQVKAFGDAGQYTCHKGGEVLSHSLLLLHKKEDGIWSTDILKDQKEPKNKTFLRCEAKNYSGRFTCWWLTTISTDLTFSVKSSRGSSDPQGVTCGAATLSAERVRGDNKEYEYSVECQEDSACPAAEESLPIEVMVDAVHKLKYENYTSSFFIRDIIKPDPPKNLQLKPLKNSRQVEVSWEYPDTWSTPHSYFSLTFCVQVQGKHKEKKDRVFTDKTSATVICRKNASISVRAQDRYYSSSWSEWASVPCSGGGGSGGGGSGGGGSGGGGSNLPVATPDPGMFPCLHHSQNLLRAVSNMLQKARQTLEFYPCTSEEIDHEDITKDKTSTVEACLPLELTKNESCLNSRETSFITNGSCLASRKTSFMMALCLSSIYEDLKMYQVEFKTMNAKLLMDPKRQIFLDQNMLAVIDELMQALNFNSETVPQKSSLEEPDFYKTKIKLCILLHAFRIRAVTIDRVMSYLNAS light: DIVMTQSPLSLPVTPGEPASISCRASQSISINLHWYQQKPGQAPRQLIAFASQSISGVPSRFSGSGSGTDFTLTISSLQPEDFATYYCQQSNSFPLTFGQGTKVEIKRTVAAPSVFIFPPSDEQLKSGTASVVCLLNNFYPREAKVQWKVDNALQSGNSQESVTEQDSKDSTYSLSSTLTLSKADYEKHKVYACEVTHQGLSSPVTKSFNRGEC

# More lines, now with the values behind:
Binder,"Fold change (window), IL-12 luciferase assay [1]","Fold change (window), IL-12 luciferase assay [2]","Fold change (window), Donor 1, IFN gamma release by human PBMC [3]","Fold change (window), Donor 2, IFN gamma release by human PBMC [3]","Fold change (window), Donor 3, IFN gamma release by human PBMC [3]","Fold change (window), IL-12 luciferase assay [4]","EC50 (read off the curve), IL-12 luciferase reporter assay (+ MTSP1) [bottom graph] [5]","EC50 (read off the curve), IL-12 luciferase reporter assay (+ MTSP1) [middle graph] [5]","EC50 (read off the curve), IL-12 luciferase reporter assay (without protease) [middle graph] [5]"
Bivalent IL-12 fusion protein FP14 (Ab101H89-12aa0054-C4-L4-IL12v1.KHKE/Ab102L69-SK1) (other) heavy: QVQLVQSGAEVKKPGSSVKVSCKASGGTFSDYYLHWSRQAPGQGLEWMGWIDPENGDTEYAPKFQGRVTITADESTSTAYMELSSLRSEDTAVYYCARNKELRYIDVWGQGTLVTVSSTSGSGRSATPRGASTKGPSVFPLAPCSKSTSGGTAALGCLVKDYFPEPVTVSWNSGALTSGVHTFPAVLQSSGLYSLSSVVTVPSSSLGTQTYICNVNHKPSNTKVDKRVGGGGSGGGGS[human IgG1 Fc with changes cut from this listing]GSGGSGGSGGSGGSGGSIWELKKDVYVVELDWYPDAPGEMVVLTCDTPEEDGITWTLDQSSEVLGSGKTLTIQVKEFGDAGQYTCHKGGEVLSHSLLLLHKKEDGIWSTDILKDQKEPKNKTFLRCEAKNYSGRFTCWWLTTISTDLTFSVKSSRGSSDPQGVTCGAATLSAERVRGDNKEYEYSVECQEDSACPAAEESLPIEVMVDAVHKLKYENYTSSFFIRDIIKPDPPKNLQLKPLKNSRQVEVSWEYPDTWSTPHSYFSLTFCVQVQGKHKEKKDRVFTDKTSATVICRKNASISVRAQDRYYSSSWSEWASVPCSGGGGSGGGGSGGGGSGGGGSNLPVATPDPGMFPCLHHSQNLLRAVSNMLQKARQTLEFYPCTSEEIDHEDITKDKTSTVEACLPLELTKNESCLNSRETSFITNGSCLASRKTSFMMALCLSSIYEDLKMYQVEFKTMNAKLLMDPKRQIFLDQNMLAVIDELMQALNFNSETVPQKSSLEEPDFYKTKIKLCILLHAFRIRAVTIDRVMSYLNAS light: DIVMTQSPLSLPVTPGEPASISCRASQSISINLHWYQQKPGQAPRQLIAFASQSISGVPSRFSGSGSGTDFTLTISSLQPEDFATYYCQQSNSFPLTFGQGTKVEIKRTVAAPSVFIFPPSDEQLKSGTASVVCLLNNFYPREAKVQWKVDNALQSGNSQESVTEQDSKDSTYSLSSTLTLSKADYEKHKVYACEVTHQGLSSPVTKSFNRGEC,23 fold,43.1 fold,94.4 fold,113 fold,54.9 fold,34.7 fold,,,
Bivalent IL-12 fusion protein FP12 (other) heavy: QVQLVQSGAEVKKPGSSVKVSCKASGGTFSDYYLHWSRQAPGQGLEWMGWIDPENGDTEYAPKFQGRVTITADESTSTAYMELSSLRSEDTAVYYCARNKELRYIDVWGQGTLVTVSSTSTSGRSANPRGASTKGPSVFPLAPCSKSTSGGTAALGCLVKDYFPEPVTVSWNSGALTSGVHTFPAVLQSSGLYSLSSVVTVPSSSLGTQTYICNVNHKPSNTKVDKRVGGGGSGGGGS[human IgG1 Fc with changes cut from this listing]GSGGSGGSGGSGGSGGSIWELKKDVYVVELDWYPDAPGEMVVLTCDTPEEDGITWTLDQSSEVLGSGKTLTIQVKEFGDAGQYTCHKGGEVLSHSLLLLHKKEDGIWSTDILKDQKEPKNKTFLRCEAKQYSGRFTCWWLTTISTDLTFSVKSSRGSSDPQGVTCGAATLSAERVRGDNKEYEYSVECQEDSACPAAEESLPIEVMVDAVHKLKYEQYTSSFFIRDIIKPDPPKNLQLKPLKNSRQVEVSWEYPDTWSTPHSYFSLTFCVQVQGKHKEKKDRVFTDKTSATVICRKNASISVRAQDRYYSSSWSEWASVPCSGGGGSGGGGSGGGGSGGGGSNLPVAAPDPGMFPCLHHSQNLLRAVSNMLQKARQTLEFYPCTSEEIDHEDITKDKTSTVEACLPLELTKQESCLNSRETSFITQGSCLASRKTSFMMALCLSSIYEDLKMYQVEFKTMNAKLLMDPKRQIFLDQNMLAVIDELMQALNFNSETVPQKSSLEEPDFYKTKIKLCILLHAFRIRAVTIDRVMSYLQAS light: DIVMTQSPLSLPVTPGEPASISCRASQSIVINLHWYQQKPGQAPRQLIAFASQSISGVPSRFSGSGSGTDFTLTISSLQPEDFATYYCQQSNSFPLTFGQGTKVEIKRTVAAPSVFIFPPSDEQLKSGTASVVCLLNNFYPREAKVQWKVDNALQSGNSQESVTEQDSKDSTYSLSSTLTLSKADYEKHKVYACEVTHQGLSSPVTKSFNRGEC,,,,,,,~0.4 nM,,
Bivalent IL-12 fusion protein FP11 (Ab101H89-12aa-C4-L4-IL12006v1.KHKE//Ab102L69-SK1) (other) heavy: QVQLVQSGAEVKKPGSSVKVSCKASGGTFSDYYLHWSRQAPGQGLEWMGWIDPENGDTEYAPKFQGRVTITADESTSTAYMELSSLRSEDTAVYYCARNKELRYIDVWGQGTLVTVSSTSTSGRSANPRGASTKGPSVFPLAPCSKSTSGGTAALGCLVKDYFPEPVTVSWNSGALTSGVHTFPAVLQSSGLYSLSSVVTVPSSSLGTQTYICNVNHKPSNTKVDKRVGGGGSGGGGS[human IgG1 Fc with changes cut from this listing]GSGGSGGSGGSGGSGGSIWELKKDVYVVELDWYPDAPGEMVVLTCDTPEEDGITWTLDQSSEVLGSGKTLTIQVKEFGDAGQYTCHKGGEVLSHSLLLLHKKEDGIWSTDILKDQKEPKNKTFLRCEAKQYSGRFTCWWLTTISTDLTFSVKSSRGSSDPQGVTCGAATLSAERVRGDNKEYEYSVECQEDSACPAAEESLPIEVMVDAVHKLKYEQYTSSFFIRDIIKPDPPKNLQLKPLKNSRQVEVSWEYPDTWSTPHSYFSLTFCVQVQGKHKEKKDRVFTDKTSATVICRKNASISVRAQDRYYSSSWSEWASVPCSGGGGSGGGGSGGGGSGGGGSNLPVAAPDPGMFPCLHHSQNLLRAVSNMLQKARQTLEFYPCTSEEIDHEDITKDKTSTVEACLPLELTKQESCLNSRETSFITQGSCLASRKTSFMMALCLSSIYEDLKMYQVEFKTMNAKLLMDPKRQIFLDQNMLAVIDELMQALNFNSETVPQKSSLEEPDFYKTKIKLCILLHAFRIRAVTIDRVMSYLQAS light: DIVMTQSPLSLPVTPGEPASISCRASQSISINLHWYQQKPGQAPRQLIAFASQSISGVPSRFSGSGSGTDFTLTISSLQPEDFATYYCQQSNSFPLTFGQGTKVEIKRTVAAPSVFIFPPSDEQLKSGTASVVCLLNNFYPREAKVQWKVDNALQSGNSQESVTEQDSKDSTYSLSSTLTLSKADYEKHKVYACEVTHQGLSSPVTKSFNRGEC,,,,,,,,~0.3 nM,~6 nM
